According to ChEMBL document CHEMBL4888484, “Replenishing the malaria drug discovery pipeline: Screening and hit evaluation of the MMV Hit Generation Library 1 (HGL1) against asexual blood stage Plasmodium falciparum ,using a nano luciferase reporter read-out” (2022):
Among all 150,000 compounds or so, about 540 (0.36%) showed an effect of 50% or more. The list shows a part of the results.

test system: Plasmodium falciparum; test: Primary screen in NF54 nanoGlo assay, in single point, at 2uM, 72h; a lower Z score goes with more inhibition; format: functional, Erythrocyte; conditions: timepoint 72 hour

First: CCC[C@H](C)c1cc(NC(=O)c2cc[nH]n2)[nH]n1
Second: CCn1ccc(C(=O)NCCc2noc(C)n2)n1
The “% Inhibition” value of the first is higher: -9% for the first, -11% for the second.

Going from C[C@@H](c1ccccc1)N1C(=O)C(=O)N(CCn2cncn2)C1=O to CCc1nn(CC)c(=O)c2cc(S(=O)(=O)Nc3ccccc3)cn12, the “% Inhibition” value rises from -3% to 1%.

Compared with Cc1cc(CNC(=O)c2cc(-n3ccnc3C)ccn2)ccn1, Cc1nn(-c2ccc(Cl)c(Cl)c2)c(NC(=O)c2ccncc2Cl)c1C is lower in “% Inhibition” value: -4% for the first, -5% for the second.

Compared with Cc1cc(C(=O)Nc2ccc3c(c2)CCC3)c(C)o1, O=C1CC[C@]2(c3ccc4c(c3)CCCC4)NCCCN12 is lower in “% Inhibition” value: 5% for the first, -4% for the second.

Going from C[C@H](O)CN(C)S(=O)(=O)Cc1ccccc1 to C[C@H](NCC(=O)N(C)C)c1ccccc1, the “% Inhibition” value rises from -9% to -5%.

First: O=C(Cc1n[nH]c2ccc(F)cc12)NCCCc1ccccc1
Second: CC[C@@H](Cc1ccccc1)N(CC)C(=O)c1ccon1
The “% Inhibition” value of the first is lower: -8% for the first, -5% for the second.

Compared with COCCN1CCC[C@@H]1CNC(=O)CNC(=O)OCc1ccccc1, NC(=O)C1CCN(CCCNC(=O)c2ccc3ccccc3n2)CC1 is higher in “% Inhibition” value: -6% for the first, -1% for the second.

Compared with CN(CCCF)[C@@H]1c2ccccc2N(C(=O)OC(C)(C)C)C[C@H]1O, CCC1(CO)CCN(C(=O)C2=Cc3ccccc3[C@H]2C)CC1 is lower in “% Inhibition” value: 7% for the first, -6% for the second.

Going from Cc1ccc(CC(=O)Nc2cc(NC(=O)c3ccc4c(c3)OCO4)ccc2F)cc1 to CCc1[nH]nc(-c2ccc3c(c2)OCO3)c1NC(=O)c1cccc(OC)c1, the “% Inhibition” value falls from 0% to -13%.

c1cc(-c2noc(C3CC3)n2)c2cc[nH]c2n1 and c1nc(-c2ccc3c(c2)OCO3)n(C2CCCCC2)n1 are the same in “% Inhibition” value: -6% for the first, -6% for the second.

Compared with C[C@H]1CNCCN1C(=O)CCCOc1ccc(F)cc1F, COc1ccnc(CN2CC(O)CC2c2ccc(F)cc2)c1 (stereo not given) is lower in “% Inhibition” value: -6% for the first, -14% for the second.

First: COCCNC(=O)c1cc2n(n1)CCN(Cc1ccc(Cl)c(Cl)c1)C2=O
Second: Cc1n[nH]nc1C(=O)N1CCCC[C@H]1C(=O)Nc1ccc(Cl)cc1Cl
The “% Inhibition” value of the first is higher: -4% for the first, -6% for the second.

First: C[C@@H](Cc1cccs1)NC(=O)NC1CCCCC1
Second: CN(Cc1cccn1C)C(=O)NC1CCCCC1
The “% Inhibition” value of the first is lower: -13% for the first, -7% for the second.

Going from Cc1ccc(NS(=O)(=O)c2ccc3c(c2)Cc2cc(S(=O)(=O)Nc4ccc(C)cc4C)ccc2-3)c(C)c1 to Cc1cc(C)nc(N[C@H](c2ccc(OC(F)F)cc2)c2cc(C)sc2NC(=O)c2ccccc2)n1, the “% Inhibition” value rises from -10% to -7%.

Going from CCCc1cc(C(=O)N2CCC(c3ccccc3)CC2)sc1C to CCCN1CCN(C(=O)c2cccc(N3CCN[C@H](c4ccccc4)C3)n2)CC1, the “% Inhibition” value rises from -1% to 8%.

First: NC(=O)Cn1c(=O)n(Cc2ccccc2F)c(=O)c2nscc21
Second: CCn1c(=O)c(C(=O)CN(Cc2ccccc2)Cc2ccccc2)c(N)n(Cc2ccccc2)c1=O
The “% Inhibition” value of the first is lower: -2% for the first, -1% for the second.

First: COCCCCN(C)C(=O)Cc1cccc2nsnc12
Second: Cc1nc(NC(=O)N(C)CCOCC2CC2)c(-c2ccccc2)s1
The “% Inhibition” value of the first is lower: -13% for the first, -11% for the second.

Going from Cc1cc(F)cc(CN2[C@@H]3CN(S(=O)(=O)c4ccc(Cl)cc4)C[C@@H]3OCCS2(=O)=O)c1 to Cc1cccc(OCc2ccc(C(=O)N(C)[C@H]3CCS(=O)(=O)C3)o2)c1, the “% Inhibition” value rises from -9% to -6%.

Going from Nc1ccc(C(=O)N2C[C@@H]3CC[C@H]2CN(C(=O)c2cnccn2)C3)cn1 to Cc1ccncc1C(=O)N1CC(N2CC(F)(F)C[C@H]2CN(C)C)C1, the “% Inhibition” value falls from 0% to -16%.

Compared with C[C@H](NC(=O)c1cc(-c2ccccc2)cn1C)c1ccccn1, C[C@H](O)c1cn(C2CN(C(=O)C(c3ccccc3)c3ccccc3)C2)nn1 is higher in “% Inhibition” value: -5% for the first, 3% for the second.

First: CCNc1nc(NCC)nc(Oc2ccc(=O)n(CCOc3ccccc3)n2)n1
Second: CN1CC[C@H](C(=O)Nc2cccnc2Oc2ccccc2)CC1=O
The “% Inhibition” value of the first is lower: -16% for the first, -15% for the second.

Going from O=C(CN1CCn2nc([C@@H](O)CO)cc2C1)Nc1ccc(Cl)cn1 to CCCn1nc(C)cc1NC(=O)N1CCN(c2ccc(C(C)=O)cc2)CC1, the “% Inhibition” value rises from -24% to -4%.

First: COc1ccc(NCc2c(C)nn(C)c2C)c(C)n1
Second: Cc1n[nH]c(C)c1CCc1nncn1-c1cccnc1
The “% Inhibition” value of the first is lower: -12% for the first, 7% for the second.

Going from Nc1ccnc(N2CCC3(CCNC(=O)CC3)CC2)n1 to O=C(OCC(=O)N1CCCC1)[C@H]1CCCN(c2nccs2)C1, the “% Inhibition” value rises from -10% to -4%.

First: COC1(c2ccnn2C)CN(c2nc(C)cc(C(F)(F)F)n2)C1
Second: Cc1nc(N2CCC(CNC(=O)[C@H]3CCOC3)CC2)c2ccsc2n1
The “% Inhibition” value of the first is lower: -2% for the first, 6% for the second.

First: CN(C(=O)C1c2ccccc2Oc2ccccc21)C1CCCCC1
Second: COc1cccc(NC(=O)c2ccccc2C(=O)OCCN2CCOCC2)c1
The “% Inhibition” value of the first is lower: -6% for the first, 38% for the second.

Going from Cn1cnn(CC(=O)N2CCC(c3nc4c(s3)CCC4)CC2)c1=O to COC(=O)c1ccc(C(=O)N2CCC(N3C(=O)COCC3=O)CC2)cc1, the “% Inhibition” value rises from -6% to 15%.

First: O=C(CCc1nnc2ccc(N3CCOCC3)nn12)N1CCc2ccccc2C1
Second: COC[C@H]1CN(C2CCC2)CC12CCN(C(=O)CCc1ccc(OC)cc1)CC2
The “% Inhibition” value of the first is lower: -25% for the first, -9% for the second.

First: CC(C)n1cc(S(=O)(=O)N(C)c2nsc3ccccc23)cn1
Second: O=C(O)c1snc2ccc(Br)cc12
The “% Inhibition” value of the first is lower: -22% for the first, 26% for the second.

First: Cc1nnsc1CN(C)C(=O)c1sc(C(C)C)nc1C
Second: CCN(C(=O)NC(C)CCc1ccc(OC)cc1)C(C)C(C)C (stereo not given)
The “% Inhibition” value of the first is lower: -11% for the first, -3% for the second.

Going from CCC[C@H](C)c1cc(NC(=O)c2cc[nH]n2)[nH]n1 to CCn1ccc(C(=O)NCCc2noc(C)n2)n1, the Z score rises from 0.91 to 1.34.

Compared with C[C@@H](c1ccccc1)N1C(=O)C(=O)N(CCn2cncn2)C1=O, CCc1nn(CC)c(=O)c2cc(S(=O)(=O)Nc3ccccc3)cn12 is lower in Z score: 0.54 for the first, -0.17 for the second.

First: Cc1cc(CNC(=O)c2cc(-n3ccnc3C)ccn2)ccn1
Second: Cc1nn(-c2ccc(Cl)c(Cl)c2)c(NC(=O)c2ccncc2Cl)c1C
The Z score of the first is higher: 0.68 for the first, 0.61 for the second.

Going from Cc1cc(C(=O)Nc2ccc3c(c2)CCC3)c(C)o1 to O=C1CC[C@]2(c3ccc4c(c3)CCCC4)NCCCN12, the Z score rises from -0.71 to 0.53.

First: C[C@H](O)CN(C)S(=O)(=O)Cc1ccccc1
Second: C[C@H](NCC(=O)N(C)C)c1ccccc1
The Z score of the first is lower: 0.96 for the first, 1.09 for the second.

Compared with O=C(Cc1n[nH]c2ccc(F)cc12)NCCCc1ccccc1, CC[C@@H](Cc1ccccc1)N(CC)C(=O)c1ccon1 is lower in Z score: 1.2 for the first, 0.7 for the second.

Compared with COCCN1CCC[C@@H]1CNC(=O)CNC(=O)OCc1ccccc1, NC(=O)C1CCN(CCCNC(=O)c2ccc3ccccc3n2)CC1 is lower in Z score: 0.91 for the first, 0.06 for the second.

First: CN(CCCF)[C@@H]1c2ccccc2N(C(=O)OC(C)(C)C)C[C@H]1O
Second: CCC1(CO)CCN(C(=O)C2=Cc3ccccc3[C@H]2C)CC1
The Z score of the first is lower: -1.14 for the first, 0.68 for the second.

Compared with Cc1ccc(CC(=O)Nc2cc(NC(=O)c3ccc4c(c3)OCO4)ccc2F)cc1, CCc1[nH]nc(-c2ccc3c(c2)OCO3)c1NC(=O)c1cccc(OC)c1 is higher in Z score: -0.04 for the first, 1.8 for the second.

Going from c1cc(-c2noc(C3CC3)n2)c2cc[nH]c2n1 to c1nc(-c2ccc3c(c2)OCO3)n(C2CCCCC2)n1, the Z score falls from 1.04 to 0.81.

Going from C[C@H]1CNCCN1C(=O)CCCOc1ccc(F)cc1F to COc1ccnc(CN2CC(O)CC2c2ccc(F)cc2)c1 (stereo not given), the Z score rises from 0.81 to 1.72.

Compared with COCCNC(=O)c1cc2n(n1)CCN(Cc1ccc(Cl)c(Cl)c1)C2=O, Cc1n[nH]nc1C(=O)N1CCCC[C@H]1C(=O)Nc1ccc(Cl)cc1Cl is higher in Z score: 0.5 for the first, 0.9 for the second.

Compared with C[C@@H](Cc1cccs1)NC(=O)NC1CCCCC1, CN(Cc1cccn1C)C(=O)NC1CCCCC1 is lower in Z score: 1.65 for the first, 1.23 for the second.

First: Cc1ccc(NS(=O)(=O)c2ccc3c(c2)Cc2cc(S(=O)(=O)Nc4ccc(C)cc4C)ccc2-3)c(C)c1
Second: Cc1cc(C)nc(N[C@H](c2ccc(OC(F)F)cc2)c2cc(C)sc2NC(=O)c2ccccc2)n1
The Z score of the first is lower: 1.29 for the first, 1.3 for the second.

Going from CCCc1cc(C(=O)N2CCC(c3ccccc3)CC2)sc1C to CCCN1CCN(C(=O)c2cccc(N3CCN[C@H](c4ccccc4)C3)n2)CC1, the Z score falls from 0.2 to -0.76.

First: NC(=O)Cn1c(=O)n(Cc2ccccc2F)c(=O)c2nscc21
Second: CCn1c(=O)c(C(=O)CN(Cc2ccccc2)Cc2ccccc2)c(N)n(Cc2ccccc2)c1=O
The Z score of the first is higher: 0.23 for the first, 0.14 for the second.

Going from COCCCCN(C)C(=O)Cc1cccc2nsnc12 to Cc1nc(NC(=O)N(C)CCOCC2CC2)c(-c2ccccc2)s1, the Z score falls from 1.4 to 1.08.

Compared with Cc1cc(F)cc(CN2[C@@H]3CN(S(=O)(=O)c4ccc(Cl)cc4)C[C@@H]3OCCS2(=O)=O)c1, Cc1cccc(OCc2ccc(C(=O)N(C)[C@H]3CCS(=O)(=O)C3)o2)c1 is lower in Z score: 1.39 for the first, 0.85 for the second.

Compared with Nc1ccc(C(=O)N2C[C@@H]3CC[C@H]2CN(C(=O)c2cnccn2)C3)cn1, Cc1ccncc1C(=O)N1CC(N2CC(F)(F)C[C@H]2CN(C)C)C1 is higher in Z score: -0.08 for the first, 1.85 for the second.

Going from C[C@H](NC(=O)c1cc(-c2ccccc2)cn1C)c1ccccn1 to C[C@H](O)c1cn(C2CN(C(=O)C(c3ccccc3)c3ccccc3)C2)nn1, the Z score falls from 0.66 to -0.24.

First: CCNc1nc(NCC)nc(Oc2ccc(=O)n(CCOc3ccccc3)n2)n1
Second: CN1CC[C@H](C(=O)Nc2cccnc2Oc2ccccc2)CC1=O
The Z score of the first is lower: 1.43 for the first, 1.78 for the second.

Compared with O=C(CN1CCn2nc([C@@H](O)CO)cc2C1)Nc1ccc(Cl)cn1, CCCn1nc(C)cc1NC(=O)N1CCN(c2ccc(C(C)=O)cc2)CC1 is lower in Z score: 2.11 for the first, 0.53 for the second.

First: COc1ccc(NCc2c(C)nn(C)c2C)c(C)n1
Second: Cc1n[nH]c(C)c1CCc1nncn1-c1cccnc1
The Z score of the first is higher: 1.39 for the first, -1.19 for the second.

Going from Nc1ccnc(N2CCC3(CCNC(=O)CC3)CC2)n1 to O=C(OCC(=O)N1CCCC1)[C@H]1CCCN(c2nccs2)C1, the Z score falls from 1.35 to 0.37.

First: COC1(c2ccnn2C)CN(c2nc(C)cc(C(F)(F)F)n2)C1
Second: Cc1nc(N2CCC(CNC(=O)[C@H]3CCOC3)CC2)c2ccsc2n1
The Z score of the first is higher: 0.24 for the first, -1.19 for the second.

Going from CN(C(=O)C1c2ccccc2Oc2ccccc21)C1CCCCC1 to COc1cccc(NC(=O)c2ccccc2C(=O)OCCN2CCOCC2)c1, the Z score falls from 0.66 to -1.5.

Compared with Cn1cnn(CC(=O)N2CCC(c3nc4c(s3)CCC4)CC2)c1=O, COC(=O)c1ccc(C(=O)N2CCC(N3C(=O)COCC3=O)CC2)cc1 is lower in Z score: 1.15 for the first, -1.96 for the second.

First: O=C(CCc1nnc2ccc(N3CCOCC3)nn12)N1CCc2ccccc2C1
Second: COC[C@H]1CN(C2CCC2)CC12CCN(C(=O)CCc1ccc(OC)cc1)CC2
The Z score of the first is higher: 2.42 for the first, 1.08 for the second.

Compared with CC(C)n1cc(S(=O)(=O)N(C)c2nsc3ccccc23)cn1, O=C(O)c1snc2ccc(Br)cc12 is lower in Z score: 3.01 for the first, -3.7 for the second.

Compared with Cc1nnsc1CN(C)C(=O)c1sc(C(C)C)nc1C, CCN(C(=O)NC(C)CCc1ccc(OC)cc1)C(C)C(C)C (stereo not given) is lower in Z score: 1.28 for the first, 0.28 for the second.
